Source: the supplement of paper PMC3334620
Over roughly 33,000 sequences, “E-score (-0.5 to 0.5)” has its median near -0.035; the highest 2% begin near 0.34. This is one part of the list.

What follows are sequences tested against T1, Mot3 (UniProt P54785) (assay: PBM E-score (8-mer binding enrichment) (E-score (-0.5 to 0.5)); higher = stronger / more preferred TF binding; most listed sequences are background and not binding sites). Conditions: protein concentration: 200 nM; construct: GST-full length.
T1 sequence: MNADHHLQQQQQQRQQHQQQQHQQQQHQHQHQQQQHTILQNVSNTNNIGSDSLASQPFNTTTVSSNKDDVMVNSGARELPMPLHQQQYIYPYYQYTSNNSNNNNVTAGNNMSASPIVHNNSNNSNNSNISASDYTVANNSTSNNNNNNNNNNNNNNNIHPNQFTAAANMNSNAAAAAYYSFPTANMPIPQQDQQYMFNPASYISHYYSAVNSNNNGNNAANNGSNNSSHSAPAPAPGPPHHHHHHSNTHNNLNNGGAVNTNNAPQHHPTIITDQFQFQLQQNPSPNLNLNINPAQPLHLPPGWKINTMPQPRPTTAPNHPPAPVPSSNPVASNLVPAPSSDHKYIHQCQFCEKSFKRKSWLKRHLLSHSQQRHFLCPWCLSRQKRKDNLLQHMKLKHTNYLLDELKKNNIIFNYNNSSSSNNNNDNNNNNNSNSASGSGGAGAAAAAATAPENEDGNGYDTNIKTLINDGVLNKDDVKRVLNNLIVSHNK
Method: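 Universal 'all 10-mer' protein binding microarrays (Agilent AMADID 015681) probed with GST-tagged S. cerevisiae TFs (full-length or DBD) made by in vitro transcription/translation (PURExpress), about 100-200 nM. Bound TF was detected with fluorescent anti-GST. Each ungapped 8-mer (which stands for itself and its reverse complement) is scored by the PBM enrichment score (E-score), a modified Wilcoxon-Mann-Whitney statistic from -0.5 to +0.5, computed with the Universal PBM Analysis Suite. Scale: above 0.35 generally sequence-specific binding.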

Sequence	PBM E-score
AAATAAGG	0.0911
ATCGGCGC	0.0331
ACGCCTCA	0.0427
GCATTAAC	0.0848
GGTATAAC	0.0489
ACACGATG	0.199
AGGAAGAC	0.0213
AAGACGCA	-0.0452
GCGCCCGA	-0.186
AGTTTTAG	0.109
GTTACTTA	0.0259
TAGCGACA	0.0489
CACCAGAG	-0.0278
ACTGACAA	0.119
GCAAGTCA	0.00523
ACAACTAA	0.183
GGACATGA	-0.0365
ATCCTAAA	-0.0533
ACCTAATA	0.14
TCATCGGA	-0.18
TCGGGGCA	-0.188
CGCTAACC	-0.148
TAGGATAA	-0.0135
ATCGTCAC	0.0854
ACATTTTC	0.145

Sequence	PBM E-score
GACCTCCC	-0.32
CCAGAAGG	0.2
GTGCTTAA	0.0807
ACGGACAT	-0.0901
CACAAAGG	0.15
AGCAGACA	-0.0512
CCCACTGA	-0.217
CCCAGTCC	-0.157
CCACAGCC	-0.109
AGGACTGG	-0.196
CCTCCTAG	-0.122
CTCCAGAG	-0.144
GTGACATA	0.237
GGTCGCGA	-0.151
AGGGTGCC	0.284
ATAGTCAA	0.0128
GGGTGTAA	0.223
ACCAAGGG	-0.00291
AATTCAAA	0.0432
ACACGAAT	0.222
GTATCGGA	0.00015
CAGCTCGG	-0.255
AATATGAA	-0.00664
CTGCCTGA	0.223
ACTACCGA	-0.157

Sequence	PBM E-score
ATTCCGCG	-0.113
AACCTAAT	0.109
AAGCCAGA	-0.0288
TAGATGGA	-0.0453
GAGTCCGC	-0.315
ATCACAAT	0.0624
CACGGAAA	0.204
ACGTGACG	0.0494
CTAGCAAC	0.109
TCCACGCA	-0.063
GTAGAATA	0.234
GGACGCAC	-0.242
CTTGAATA	0.0439
GGAGGAGA	-0.167
CAAATTGC	0.00715
ACGCTGCT	0.0819
GAACTAGA	0.052
CCTCCCAA	-0.153
CTCCGATA	-0.16
AGTTGTAA	0.211
ATTTTATA	0.121
ACTAGCAC	-0.244
CCGGTGAC	-0.211
ATGGTGAG	-0.0265
GACCAGTC	-0.175

Sequence	PBM E-score
AGGACAGA	-0.0828
AGCAATGG	-0.204
GCTTCTAC	-0.0179
TTGTCAAA	0.108
GTACTCAC	-0.102
CCTTCAAA	0.115
ATTCCCAG	-0.0785
AAGTAAAG	0.131
TAGGTAGA	0.0477
ATATGCTA	-0.0819
GCAAATAA	0.104
CGTCTCTA	-0.0824
AACCTTCG	0.0434
AACCGTCA	-0.113
CTGGCGAC	-0.215
GGGTCCGA	-0.135
TAACGGTA	-0.055
TACTTTGA	0.0853
CCTGATAA	0.138
CCCCTAAA	-0.27
GGATCGCA	-0.0912
CCAGGAGA	-0.238
CATGGAGA	0.0809
GTATTAAA	0.222
CAGGCTGC	-0.05

Sequence	PBM E-score
CCTAACAA	0.249
CATCGCTC	-0.304
CGGAAAGC	-0.151
CATAGATA	0.0267
TTCGCGAA	0.24
TCGATACA	0.111
ATCTGCCC	-0.0711
AAACTTAG	0.0943
GTTTTGAA	0.24
GGCGGTAA	0.0108
AATGCGGG	0.0272
CAGACATC	-0.16
ATGGAAGC	-0.191
ATTAGGAG	0.0663
ACAGTGAT	-0.0444
CCGATAAC	0.038
GGCGTACC	0.00915
AAGGTTCC	0.239
CCAAGTGA	-0.149
ATCGCACC	-0.117
CGTGATCA	-0.171
AGGAACTA	0.38
ATGCCAGG	-0.0858
ATAGGAAG	-0.0193
TCCACGGA	-0.0381

Sequence	PBM E-score
ATATGCCC	-0.182
AATCGTTA	0.108
AGATGTAA	0.272
CCCCTGAG	-0.231
CATACAGG	0.307
ATATCAAG	-0.0867
ATAAAGCA	-0.12
CGGTCCAA	-0.165
ACTGAGGG	-0.196
CTATCATC	0.0533
ACTATGGG	-0.168
ACTTGGTC	-0.0834
CCGCCACG	-0.179
CACCGTTC	0.0905
GTTTTCAA	0.236
GGAGCATA	-0.05
AAGCATAC	0.108
ACTGCCAC	-0.303
AGTCGTCC	-0.197
GGCGCTGA	-0.104
ACATGTCG	0.246
ATCATGGC	-0.282
TAGTGCCA	0.0115
ACGCTAGA	-0.168
ACCGAGGA	-0.111

Sequence	PBM E-score
CTTCACTA	-0.0387
AAGCAGTC	-0.0406
TATCCTAA	-0.0124
ACACCGGC	0.00195
CGACTGTA	-0.0244
AGTATGTA	0.289
TAGTAAAA	0.19
ATCAAGTA	0.107
ACAATCTG	0.0425
CCATACGA	-0.193
AAAATGCG	0.00885
CAAGGCGC	0.191
CTGAGATA	-0.00922
ACTGAGCT	-0.299
AAAGACTT	0.077
GTCAATGA	0.00322
GGGAAAGA	-0.0956
GGGTGCAA	-0.353
TAAAGATA	0.141
AAGTTTAC	0.235
CTATGGAG	-0.271
TATTCTGA	0.0534
AGACTGGG	-0.244
ACACCGGG	-0.101
ATAGTTTA	0.0652

Sequence	PBM E-score
CTAGACGA	-0.148
GCTTGAGA	-0.24
AGTACGGC	-0.0993
ATACCTAC	0.156
GAATTGCA	0.065
CCAGCTCC	-0.176
AGACTGCG	-0.225
ACTCGAAC	-0.0481
GATGACCC	-0.0211
GTCCGGCA	-0.104
ATTAAAAA	0.162
AGGCAACC	0.483
GTCTGAAC	-0.217
AAGAATTC	-0.0576
ACGTTTTC	0.159
AAGGCGAA	-0.0356
CTCGCACC	-0.156
TCGTGAGA	-0.179
AACCAGGC	0.0998
TCAAGTCA	0.0447
AAAGGCGC	0.371
ATGGGGGC	-0.0992
CAGTCCCC	-0.411
GGTCTGTA	0.0401
AGAGAGCG	-0.159

Sequence	PBM E-score
CACCAAGC	-0.0401
ATATGGGG	-0.253
AAGATACA	0.244
AAGAAGTA	-0.0249
CAACGGAA	0.103
GTACGGCA	0.0141
GCGGACCC	-0.296
CACAAATG	0.15
ACTAGACG	0.0561
CCAGTGAC	-0.133
ACCGGCAT	-0.239
ATATGAAC	0.134
CAGATTGG	-0.274
GTCACGGA	-0.0824
AGATTGCT	-0.22
CATCACAC	0.0832
CACCATCC	-0.0507
GATTCGAA	0.0361
GCCGATCA	-0.111
ACTAATTA	0.242
AGATACAC	0.138
ACCGGGCT	-0.136
AGTGATGC	-0.1
GTTGAATA	0.137
CATGCAGG	0.0359

Sequence	PBM E-score
CTTCGCCC	-0.201
GAACAATC	0.0225
AAATCAGC	0.0829
CCAACCGG	-0.275
AGTTCCTC	0.0435
TGGACCAA	-0.071
ATAGACAC	0.178
AATGGCTA	-0.0483
AGCCTCCT	-0.136
ACCCTAGG	0.0847
CCCATAAG	-0.233
CACCGACG	0.066
GTTAGCAA	0.0861
AGGCGAGC	-0.0541
GGGTATGA	-0.0865
CCAAAAGA	0.0627
ATTCGGCG	-0.249
AGGCGTAT	0.13
CGTACCTC	-0.144
ATATCCAC	-0.0283
AAATGAGC	0.00391
CCCGGCGG	-0.374
CGTCGTCC	-0.192
GCTAACAC	0.253
ACATGGGG	0.233

Sequence	PBM E-score
GGCGAACA	-0.191
CAACGCAA	0.256
GAGCGCTC	-0.331
ATAGAAAG	-0.107
GTTGGACA	0.101
ATACCGCG	-0.159
ATTTATTG	0.0307
AGTCGGAC	-0.0912
TACTATGA	-0.0335
AAAGTTAA	0.112
GTTGCCTA	0.488
CTGCCGCC	-0.274
CAAGTTGA	0.107
GACCATCA	-0.141
CAATTCTC	-0.0479
GATCTCGC	-0.262
ATTGTGTC	0.139
ACTTATAC	0.0535
AAGTAAGT	0.0115
AACGGCAG	-0.0848
CTTGAGAA	0.0551
AACGTTCC	0.194
GGAGTTTA	0.109
ATTTCGTA	0.15
ACAGATAG	0.00406

Sequence	PBM E-score
ATGCACTC	-0.061
ATACCAAA	-0.00456
CCCCGCCC	-0.0577
AACTTCTC	-0.0237
CCGATTTC	-0.014
AACAGTAT	0.0765
ACTTATGG	-0.197
CCATTGAG	-0.266
GCTGGGTA	-0.189
TACTGTCA	-0.12
AGGATTCA	-0.0361
ACCCCCCT	-0.22
CAACAATA	0.223
CGCCTAAC	0.152
CTACCGAA	-0.147
CTCCAAGA	-0.156
CTGGAGTC	-0.231
CGGCGCAG	-0.16
ACCCTCAT	-0.211
AGTACCAC	-0.0545
CCGGTTAG	-0.0697
GCTAGTGA	-0.136
GCCGATAC	-0.157
CGAAATGC	-0.0411
CACGCATC	0.0401

Sequence	PBM E-score
ATACTCCG	-0.189
AACGAGTG	0.115
TAACAGGA	0.269
ACGCAAGT	0.139
AGTTAGTC	-0.15
GTGCGACA	-0.148
AGGAATGA	0.0383
CACTTCCG	-0.114
CGCGGGAC	-0.247
CATGGCAC	0.0198
CGTATCGA	0.069
CGTGGGCA	-0.152
CGTGAGAA	-0.0654
AACATTGA	0.165
CCACTCGA	-0.0827
ACCCTCGT	0.0213
ACTTCCCG	-0.128
GGCTAGTA	0.0473
AGTTAGGA	0.108
CTTTCCAC	-0.177
ACGTATAC	0.17
AATTGCGC	0.0861
CATGGTAA	0.17
AACGGTTG	0.072
ACTCCACA	0.0701

Sequence	PBM E-score
ATTCGGGC	-0.093
CTACTCAC	0.0243
AAAGTGAA	0.0712
TCCCTAAA	-0.0605
GAGTATAA	0.154
AGACGGAA	-0.247
ACGAATTA	0.179
CGTTTTAA	0.194
ACCAAAGG	0.00751
CCCTGGTC	-0.315
CCCAATGC	-0.165
ACCTGAAT	0.198
GCGCGGAC	0.00829
GTAATTTA	0.298
CGGATGGC	-0.204
ACATTTTA	0.212
GCGTTCGA	0.0844
CTAACTCA	-0.0373
ATCGAACA	-0.0411
